The supplement of paper PMC3334620
In all, about 33,000 sequences were measured (“E-score (-0.5 to 0.5)”: median about -0.012, highest 2% from about 0.27 on). The list shows a part of the results.

What follows are sequences tested against T1, Vhr1 (UniProt P40522) (assay: PBM E-score (8-mer binding enrichment) (E-score (-0.5 to 0.5)); higher = stronger / more preferred TF binding; most listed sequences are background and not binding sites). Conditions: protein concentration: 200 nM; construct: GST-full length.
T1 sequence: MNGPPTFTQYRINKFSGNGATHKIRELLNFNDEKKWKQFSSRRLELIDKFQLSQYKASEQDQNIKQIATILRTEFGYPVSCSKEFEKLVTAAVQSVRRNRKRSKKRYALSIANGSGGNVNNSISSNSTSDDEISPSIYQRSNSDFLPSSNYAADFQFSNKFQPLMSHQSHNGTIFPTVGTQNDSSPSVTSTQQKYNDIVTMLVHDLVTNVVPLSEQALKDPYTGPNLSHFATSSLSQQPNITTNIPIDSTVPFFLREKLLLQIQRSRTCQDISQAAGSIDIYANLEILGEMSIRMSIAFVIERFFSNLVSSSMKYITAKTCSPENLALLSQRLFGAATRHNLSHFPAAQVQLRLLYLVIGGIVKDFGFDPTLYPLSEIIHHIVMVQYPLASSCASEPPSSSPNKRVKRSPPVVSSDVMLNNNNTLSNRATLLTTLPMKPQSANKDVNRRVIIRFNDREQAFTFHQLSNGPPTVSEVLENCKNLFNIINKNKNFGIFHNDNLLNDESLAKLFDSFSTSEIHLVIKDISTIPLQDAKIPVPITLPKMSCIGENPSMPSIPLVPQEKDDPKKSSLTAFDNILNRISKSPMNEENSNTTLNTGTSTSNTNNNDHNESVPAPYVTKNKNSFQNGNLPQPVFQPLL
Method: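 Universal 'all 10-mer' protein binding microarrays (Agilent AMADID 015681) probed with GST-tagged S. cerevisiae TFs (full-length or DBD) made by in vitro transcription/translation (PURExpress), about 100-200 nM. Bound TF was detected with fluorescent anti-GST. Each ungapped 8-mer (which stands for itself and its reverse complement) is scored by the PBM enrichment score (E-score), a modified Wilcoxon-Mann-Whitney statistic from -0.5 to +0.5, computed with the Universal PBM Analysis Suite. Scale: above 0.35 generally sequence-specific binding.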

Sequence | PBM E-score
GAGAGAGC | -0.139
CGGCCGAA | 0.185
ATGGACCA | 0.0163
AATCTAAT | -0.177
CGGCGGAA | -0.00749
GTGTGTTA | 0.278
ATCCGTGC | 0.05
CGCGCAAC | 0.0746
AAATGGGG | -0.0546
ATAGGACA | -0.0209
CCACGTTA | 0.0119
ACTATCCA | 0.099
CTAGAGTA | 0.0294
ATCAATAG | -0.0349
CTCCCTCA | -0.11
AACCCTTC | 0.0451
AATTCGTC | -0.0585
ACACCAGT | 0.0743
AGAACCCA | 0.0152
GCCCTGGA | -0.101
CCCGATGC | -0.18
ACACAAAC | -0.0255

Sequence | PBM E-score
GCACTGAC | 0.0316
GAGGACCA | 0.0256
TATTTGGA | -0.196
GGCTATGA | 0.0249
CATAGGAA | -0.255
CCCAGACA | -0.0129
CCACGAGA | -0.145
AGTCCTCC | 0.0948
ATTCTAAA | -0.135
CCAGCCGC | 0.227
AGATTAAA | 0.0709
CCATTGAC | 0.0516
TCCGTTCA | -0.221
AGAGTACG | -0.088
ATGTTAAT | 0.0826
GAGGGACA | 0.00909
ATCGGAGC | -0.049
ATAAGGGA | -0.137
AACGTAAT | -0.0132
AGGCTCGC | 0.0638
CGAAGGAA | -0.0766
AGGCGCCG | 0.0289

Sequence | PBM E-score
AGTGTTAC | -0.0469
ACCGCATG | 0.0669
ACGCTTGA | -0.0784
ATTACCTG | -0.12
CCGCAGCA | 0.0345
CTTTTAAA | -0.317
AAGGCCGT | -0.148
CATGCTCG | 0.129
CAAAGGGC | 0.0988
ATGGGACG | -0.0961
AAATGGCA | -0.0189
GTAGTATA | 0.217
AAGGCTTA | -0.209
CAAAGTGA | 0.0453
CAACCCCA | 0.06
CAGACACC | 0.0912
AGTTTGAT | 0.0522
CTAGTCCA | -0.00673
CCCGACCG | -0.0249
GAATCGGA | 0.139
GGCAACGA | 0.00983
ACGATACG | -0.149

Sequence | PBM E-score
CGGTCTCC | -0.0871
CGAAGGGA | 0.093
ATAAAGGC | -0.282
ACCCGTAC | 0.0748
AGAACTCA | 0.037
AGTAGTGG | 0.135
CGGGTCTA | 0.0285
ACTGACCC | 0.0589
AGGCGGGC | 0.118
ACATGTCA | 0.0414
AATTAGAA | -0.0829
TAGGATCA | 0.0683
AACGCGAG | 0.0573
GACACTTA | -0.0355
GCTGCAGA | 0.0309
ATGTCAAA | -0.172
AAACACTT | -0.172
GCCCCGGA | 0.0718
GCAACCCA | 0.0849
ACACGCAA | 0.124
